Source: the supplement of paper PMC2702839
Where a name gives a salt, the structure may show the parent alone. Some of the results follow.

What follows are compounds tested on Schistosoma mansoni schistosomula (assay: phenotypic hit in primary schistosomula screen (any phenotype vs DMSO control) (binary (1 = hit, 0 = no phenotype)); higher = active (phenotype induced)). Settings: 1 µM; time (d): 7.

Row | Compound | phenotypic hit
1 | O=C(O)c1ccc2c(c1)OCO2 [piperonylic acid] | inactive: 0
2 | NCCCS(=O)(=O)O [3-aminopropanesulphonic acid] | inactive: 0
3 | CC(C)CCC[C@@H](C)[C@H]1CC[C@H]2[C@@H]3CC[C@@H]4C[C@H](O)CC[C@]4(C)[C@H]3CC[C@]12C [epicoprosterol] | inactive: 0
4 | Nc1nc(/C(=C/CC(=O)O)C(=O)N[C@@H]2C(=O)N3C(C(=O)O)=CCS[C@H]23)cs1 [ceftibuten] | inactive: 0
5 | COc1cccc2c(C)cc(=O)[nH]c12 [2-hydroxy-8-methoxylepidine] | active: 1
6 | CCC1(C)CC(=O)NC1=O (configuration not stated) [ethosuximide] | inactive: 0
7 | CC(NCCc1ccc(O)cc1)C(O)c1ccc(O)cc1 (configuration not stated) [ritodrine hydrochloride] | inactive: 0
8 | O=C1CC[C@]23/C=C/C(=O)NCCCCNCCCNC(=O)/C=C/c4ccc(c2c4)O[C@@H]3C1 [lunarine] | inactive: 0
9 | NNC(=O)c1ccncc1.Nc1ccc(C(=O)O)c(O)c1 [pasiniazid] | inactive: 0
10 | COc1cc(O)c(C(=O)/C=C/c2ccccc2)c(OC)c1 [flavokawain b] | inactive: 0
11 | CCCc1nn(C)c2c(=O)[nH]c(-c3cc(S(=O)(=O)N4CCN(C)CC4)ccc3OCC)nc12 [sildenafil] | inactive: 0
12 | CCC(C)(C)C(=O)O[C@H]1C[C@@H](C)C=C2C=C[C@H](C)[C@H](CC[C@@H]3C[C@@H](O)CC(=O)O3)[C@H]21 [simvastatin] | active: 1
13 | C[C@@H]1CN(c2c(F)c(F)c3c(=O)c(C(=O)O)cn(C4CC4)c3c2F)C[C@H](C)N1 [orbifloxacin] | inactive: 0
14 | CC(=O)Oc1ccc(C(c2ccc(OC(C)=O)cc2)c2ccccn2)cc1 [bisacodyl] | inactive: 0
15 | CC1(C)CC2C1CC[C@]1(CBr)CCC3C(CC(=O)O)C(=O)O[C@@]32C1 (some centres not stated) [bromo-3-hydroxy-4- (succin-2-yl)-caryolane gamma-lactone] | inactive: 0
16 | CC(=O)[C@@]1(O)CC[C@H]2[C@@H]3CCC4=CC(=O)CC[C@]4(C)[C@H]3CC[C@@]21C [hydroxyprogesterone] | inactive: 0
17 | Oc1ccc2c(c1)OC[C@H]1c3cc4c(cc3O[C@@H]21)OCO4 [maackiain] | inactive: 0
18 | C[C@H]1[C@H](C)CC[C@]2(C(=O)O)CC[C@]3(C)C(=CC[C@@H]4[C@@]5(C)CC[C@H](O)C(C)(C)[C@@H]5CC[C@]43C)[C@H]12 [ursolic acid] | inactive: 0
19 | Oc1cc2c(cc1O)C1c3ccc(O)c(O)c3OCC1(O)C2 (configuration not stated) [haematoxylin] | inactive: 0
20 | NC1(C(=O)O)CC1 [aminocyclopropanecarboxylic acid] | inactive: 0
21 | CC(=O)O[C@@H]1C[C@H]2C(C)(C)C(=O)C=C[C@]2(C)[C@H]2CC[C@@]3(C)[C@H](c4ccoc4)OC(=O)[C@H]4O[C@]43[C@@]21C [gedunin] | inactive: 0
22 | CSCC[C@H](NC=O)C(=O)N[C@@H](Cc1ccccc1)C(=O)O [n-formylmethionylphenylalanine] | inactive: 0
23 | COc1cc2oc(=O)c3oc4c5c(ccc4c(=O)c3c2cc1OC)OC(C)(C)CC5 [beta-dihydrorotenone] | inactive: 0
24 | C[C@@H]1CC[C@@]23CCC4(C)[C@@](C=CC5[C@@]6(C)CC[C@H](O)C(C)(C)C6CC[C@]54C)(OC2=O)C3[C@H]1C (some centres not stated) [dehydro (11,12)ursolic acid lactone] | active: 1

Row | Compound | phenotypic hit
25 | CN(C)CCOC(c1ccccc1)c1ccccc1.Cn1c(=O)c2[nH]c(Cl)nc2n(C)c1=O [dimenhydrinate] | inactive: 0
26 | COc1cc(C)c(C(=O)Oc2cc(C)c(C(=O)O)c(O)c2C)c(OC)c1C [diffractaic acid] | active: 1
27 | O=C1NCC2(CCN(CCc3ccccc3)CC2)O1 [fenspiride hydrochloride] | inactive: 0
28 | CCCNC(=O)NS(=O)(=O)c1ccc(Cl)cc1 [Chlorpropamide] | inactive: 0
29 | CCN(CC)C(C)CN1c2ccccc2Sc2ccccc21 (configuration not stated) [ethopropazine hydrochloride] | inactive: 0
30 | O=C1CCCCC/C=C\CCCCCCCCO1 [ambrettolide] | inactive: 0
31 | N=C(N)NCCCCNC(=N)N [Arcaine sulfate] | inactive: 0
32 | Clc1cccc(Cl)c1NC1=NCCN1 [Clonidine hydrochloride] | inactive: 0
33 | C=CC(C)(C)c1c2c(c(O)c3c(=O)c4ccc(O)c(O)c4oc13)C=CC(C)(C)O2 [macluroxanthone] | inactive: 0
34 | NCCCCCC(=O)O [aminocaproic acid] | inactive: 0
35 | CNCCc1ccccn1 [betahistine hydrochloride] | inactive: 0
36 | NC(Cn1ccc(=O)c(O)c1)C(=O)O (configuration not stated) [mimosine] | inactive: 0
37 | CN1CCN(CC(=O)N2c3ccccc3C(=O)Nc3cccnc32)CC1 [Pirenzepine dihydrochloride] | inactive: 0
38 | COC(=O)Nc1nc2cc(Sc3ccccc3)ccc2[nH]1 [fenbendazole] | inactive: 0
39 | COc1ccccc1-c1cc(=O)c2c(OC)cccc2o1 [5,2'-dimethoxyflavone] | inactive: 0
40 | CC(=O)OC1CC(O)C(C)(C)C2CC(=O)C3(C)C(CCC4(C)C(c5ccoc5)OC(=O)C5OC543)C12C (configuration not stated) [7-deacetoxy-3-deacetyl-7-oxokhivorin] | inactive: 0
41 | C[C@@](Cc1ccc(O)c(O)c1)(NN)C(=O)O [carbidopa] | inactive: 0
42 | O=c1[nH]cnc2nc[nH]c12 [hypoxanthine] | inactive: 0
43 | Nc1ncnc2c1ncn2[C@@H]1O[C@H](CO)[C@@H](O)[C@@H]1O [vidarabine] | inactive: 0
44 | CCC1(c2ccccc2)C(=O)NCNC1=O [Primidone] | inactive: 0
45 | N#Cc1ccc2c(c1)N(CCCN1CCC(O)CC1)c1ccccc1S2 [periciazine] | inactive: 0
46 | Oc1c(Cl)cc(Cl)c2cccnc12 [chloroxine] | inactive: 0
47 | NC[C@@H]1O[C@H](O[C@H]2[C@@H](O)[C@H](O[C@@H]3[C@@H](O)[C@H](N)C[C@H](N)[C@H]3O[C@H]3O[C@H](CO)[C@@H](O)C[C@H]3N)O[C@@H]2CO)[C@H](N)[C@@H](O)[C@@H]1O[C@H]1O[C@H](CO)[C@@H](O)[C@H](O)[C@@H]1O [lividomycin sulfate] | inactive: 0
